# Some of the results follow.
# B1: Siglec-9 (Homo sapiens), Q9Y336 (protein)
# chain: MLLLLLPLLWGRERAEGQTSKLLTMQSSVTVQEGLCVHVPCSFSYPSHGWIYPGPVVHGYWFREGANTDQDAPVATNNPARAVWEETRDRFHLLGDPHTKNCTLSIRDARRSDAGRYFFKMEKGSIKWNYKHHRLSVNVTALTHRPNILIPGTLESGCPQNLTCSVPWACEQGTPPMISWIGTSVSPLDPSTTRSSVLTLIPQPQDHGTSLTCQVTFPGASVTTNKTVHLNVSYPPQNLTMTVFQGDGTVSTVLGNGSSLSLPEGQSLRLVCAVDAVDSNPPARLSLSWRGLTLCPSQPSNPGVLELPWVHLRDAAEFTCRAQNPLGSQQVYLNVSLQSKATSGVTQGVVGGAGATALVFLSFCVIFVVVRSCRKKSARPAAGVGDTGIEDANAVRGSASQGPLTEPWAEDSPPDQPPPASARSSVGEGELQYASLSFQMVKPWDSRGQEATDTEYSEIKIHR
# Columns and labels:
# Assay in all cases: glycan array binding signal (z-score within array); higher = stronger binding
# Details in all cases: glycan notation: IUPAC condensed, linker removed; mutation: R120K
# [1] = target: Neu5Ac(a2-3)Gal(b1-4)GlcNAc(b1-2)Man(a1-3)[Neu5Ac(a2-6)Gal(b1-4)GlcNAc(b1-2)Man(a1-6)]Man(b1-4)GlcNAc(b1-4)GlcNAc
# Method in brief: (§1)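 Negative Z-scores can be read as non-binding. The Z-score is calculated within each array and then averaged across arrays of one protein sequence at different concentrations or buffers and across linkers. Arrays, 3228 in all, were curated from the Consortium for Functional Glycomics database and kept only where the protein sequence was available.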
# [2] = target: Neu5Ac(a2-3)Gal(b1-4)GlcNAc(b1-2)[Neu5Ac(a2-3)Gal(b1-4)GlcNAc(b1-4)]Man(a1-3)[GlcNAc(b1-4)][Neu5Ac(a2-3)Gal(b1-4)GlcNAc(b1-2)[Neu5Ac(a2-3)Gal(b1-4)GlcNAc(b1-6)]Man(a1-6)]Man(b1-4)GlcNAc(b1-4)GlcNAc
# Method in brief: as §1
# [3] = target: Neu5Ac(a2-3)Gal(b1-4)GlcNAc(b1-2)[Neu5Ac(a2-3)Gal(b1-4)GlcNAc(b1-4)]Man(a1-3)[GlcNAc(b1-4)][Neu5Ac(a2-3)Gal(b1-4)GlcNAc(b1-4)Man(a1-6)]Man(b1-4)GlcNAc(b1-4)GlcNAc
# Method in brief: as §1
# [4] = target: Neu5Ac(a2-3)Gal(b1-4)GlcNAc(b1-2)[Neu5Ac(a2-3)Gal(b1-4)GlcNAc(b1-6)]Man(a1-6)[Neu5Ac(a2-3)Gal(b1-4)GlcNAc(b1-2)Man(a1-3)][GlcNAc(b1-4)]Man(b1-4)GlcNAc(b1-4)GlcNAc
# Method in brief: as §1
# [5] = target: Neu5Ac(a2-3)Gal(b1-4)GlcNAc(b1-3)Gal
# Method in brief: as §1
# [6] = target: Neu5Ac(a2-3)Gal(b1-4)GlcNAc(b1-3)Gal(b1-3)GlcNAc
# Method in brief: as §1
# [7] = target: Neu5Ac(a2-3)Gal(b1-4)GlcNAc(b1-3)Gal(b1-4)GlcNAc
# Method in brief: as §1
# [8] = target: Neu5Ac(a2-3)Gal(b1-4)GlcNAc(b1-3)Gal(b1-4)GlcNAc(b1-2)Man(a1-3)[Neu5Ac(a2-3)Gal(b1-4)GlcNAc(b1-3)Gal(b1-4)GlcNAc(b1-2)Man(a1-6)]Man(b1-4)GlcNAc(b1-4)GlcNAc
# Method in brief: as §1
# [9] = target: Neu5Ac(a2-3)Gal(b1-4)GlcNAc(b1-3)Gal(b1-4)GlcNAc(b1-3)Gal(b1-4)GlcNAc
# Method in brief: as §1
# [10] = target: Neu5Ac(a2-3)Gal(b1-4)GlcNAc(b1-3)Gal(b1-4)GlcNAc(b1-3)Gal(b1-4)GlcNAc(b1-2)Man(a1-3)[Neu5Ac(a2-3)Gal(b1-4)GlcNAc(b1-3)Gal(b1-4)GlcNAc(b1-3)Gal(b1-4)GlcNAc(b1-2)Man(a1-6)]GalNAc
# Method in brief: as §1
# [11] = target: Neu5Ac(a2-3)Gal(b1-4)GlcNAc(b1-3)Gal(b1-4)GlcNAc(b1-3)GalNAc
# Method in brief: as §1
# [12] = target: Neu5Ac(a2-3)Gal(b1-4)GlcNAc(b1-3)Gal(b1-4)GlcNAc(b1-3)[Neu5Ac(a2-3)Gal(b1-4)GlcNAc(b1-3)Gal(b1-4)GlcNAc(b1-6)]GalNAc
# Method in brief: as §1
# [13] = target: Neu5Ac(a2-3)Gal(b1-4)GlcNAc(b1-3)Gal(b1-4)GlcNAc(b1-6)[Gal(b1-3)]GalNAc
# Method in brief: as §1
# [14] = target: Neu5Ac(a2-3)Gal(b1-4)GlcNAc(b1-3)Gal(b1-4)[Fuc(a1-3)]GlcNAc
# Method in brief: as §1
# [15] = target: Neu5Ac(a2-3)Gal(b1-4)GlcNAc(b1-3)GalNAc
# Method in brief: as §1
# [16] = target: Neu5Ac(a2-3)Gal(b1-4)GlcNAc(b1-3)[Neu5Ac(a2-3)Gal(b1-4)GlcNAc(b1-6)]GalNAc
# Method in brief: as §1
# [17] = target: Neu5Ac(a2-3)Gal(b1-4)GlcNAc(b1-6)GalNAc
# Method in brief: as §1
# [18] = target: Neu5Ac(a2-3)Gal(b1-4)GlcNAc(b1-6)[Gal(b1-3)]GalNAc
# Method in brief: as §1
# [19] = target: Neu5Ac(a2-3)Gal(b1-4)GlcNAc(b1-6)[Neu5Ac(a2-3)Gal(b1-3)]GalNAc
# Method in brief: as §1
# [20] = target: Neu5Ac(a2-3)Gal(b1-4)GlcNAc6S
# Method in brief: as §1
# [21] = target: Neu5Ac(a2-3)Gal(b1-4)[Fuc(a1-3)]GlcNAc
# Method in brief: as §1
# [22] = target: Neu5Ac(a2-3)Gal(b1-4)[Fuc(a1-3)]GlcNAc(b1-2)Man
# Method in brief: as §1
# [23] = target: Neu5Ac(a2-3)Gal(b1-4)[Fuc(a1-3)]GlcNAc(b1-3)Gal
# Method in brief: as §1
# [24] = target: Neu5Ac(a2-3)Gal(b1-4)[Fuc(a1-3)]GlcNAc(b1-3)Gal(b1-4)GlcNAc
# Method in brief: as §1
# [25] = target: Neu5Ac(a2-3)Gal(b1-4)[Fuc(a1-3)]GlcNAc(b1-3)Gal(b1-4)[Fuc(a1-3)]GlcNAc(b1-3)Gal(b1-4)[Fuc(a1-3)]GlcNAc
# Method in brief: as §1
# [26] = target: Neu5Ac(a2-3)Gal(b1-4)[Fuc(a1-3)]GlcNAc(b1-3)GalNAc
# Method in brief: as §1
# [27] = target: Neu5Ac(a2-3)Gal(b1-4)[Fuc(a1-3)]GlcNAc(b1-6)[Gal(b1-3)]GalNAc
# Method in brief: as §1
# [28] = target: Neu5Ac(a2-3)Gal(b1-4)[Fuc(a1-3)]GlcNAc(b1-6)[Neu5Ac(a2-3)Gal(b1-3)]GalNAc
# Method in brief: as §1
# [29] = target: Neu5Ac(a2-3)Gal(b1-4)[Fuc(a1-3)]GlcNAc6S
# Method in brief: as §1
# [30] = target: Neu5Ac(a2-3)Gal6S(b1-4)GlcNAc
# Method in brief: as §1
# [31] = target: Neu5Ac(a2-3)Gal6S(b1-4)[Fuc(a1-3)]GlcNAc
# Method in brief: as §1
# Neu5Ac(a2-3)GalNAc = target: Neu5Ac(a2-3)GalNAc
# Method in brief: as §1
# [32] = target: Neu5Ac(a2-3)GalNAc(b1-4)GlcNAc
# Method in brief: as §1
# [33] = target: Neu5Ac(a2-3)[GalNAc(b1-4)]Gal(b1-4)Glc
# Method in brief: as §1
# [34] = target: Neu5Ac(a2-3)[GalNAc(b1-4)]Gal(b1-4)GlcNAc
# Method in brief: as §1
# [35] = target: Neu5Ac(a2-3)[GalNAc(b1-4)]Gal(b1-4)GlcNAc(b1-3)GalNAc
# Method in brief: as §1
# [36] = target: Neu5Ac(a2-3)[Neu5Ac(a2-6)]GalNAc
# Method in brief: as §1
binder,measurement,setting,value
B1,glycan array binding signal (z-score),[1],-0.553
same,glycan array binding signal (z-score),[2],-0.287
same,glycan array binding signal (z-score),[3],-0.131
same,glycan array binding signal (z-score),[4],-0.407
same,glycan array binding signal (z-score),[5],-0.264
same,glycan array binding signal (z-score),[6],-0.412
same,glycan array binding signal (z-score),[7],-0.414
same,glycan array binding signal (z-score),[8],0.07
same,glycan array binding signal (z-score),[9],0.054
same,glycan array binding signal (z-score),[10],0.289
same,glycan array binding signal (z-score),[11],0.037
same,glycan array binding signal (z-score),[12],-0.292
same,glycan array binding signal (z-score),[13],0.106
same,glycan array binding signal (z-score),[14],-0.009
same,glycan array binding signal (z-score),[15],-0.376
same,glycan array binding signal (z-score),[16],0.148
same,glycan array binding signal (z-score),[17],-0.097
same,glycan array binding signal (z-score),[18],-0.302
same,glycan array binding signal (z-score),[19],-0.214
same,glycan array binding signal (z-score),[20],-0.216
same,glycan array binding signal (z-score),[21],-0.413
same,glycan array binding signal (z-score),[22],0.924
same,glycan array binding signal (z-score),[23],-0.088
same,glycan array binding signal (z-score),[24],0.066
same,glycan array binding signal (z-score),[25],-0.403
same,glycan array binding signal (z-score),[26],-0.755
same,glycan array binding signal (z-score),[27],-0.345
same,glycan array binding signal (z-score),[28],-0.008
same,glycan array binding signal (z-score),[29],0.257
same,glycan array binding signal (z-score),[30],0.077
same,glycan array binding signal (z-score),[31],-0.471
same,glycan array binding signal (z-score),Neu5Ac(a2-3)GalNAc,-0.241
same,glycan array binding signal (z-score),[32],-0.284
same,glycan array binding signal (z-score),[33],-0.504
same,glycan array binding signal (z-score),[34],-0.343
same,glycan array binding signal (z-score),[35],0.273
same,glycan array binding signal (z-score),[36],-0.301

# — the supplement of paper PMC8728848
